The other results are listed elsewhere or left out. The main result of the screen is listed elsewhere. These columns were measured beside it and carry no call.
Key:
Assay in all cases: Primary Screen for Target Class Profiling of Small Molecule Inhibitors of Methyltransferases
[1] = molecular target: Glycine N-methyltransferase (Homo sapiens) (UniProt Q14749); details: purified enzyme, MTase-Glo SAH luminescence; measured here: GNMT inhibition; at 40 µM; stronger effect = lower value
Procedure, shortened: (§1)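 Each enzyme was assayed with SAM and its substrate. SAH formation detected by MTase-Glo luminescence; single-point 40 uM screen[…].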

[2] = molecular target: Guanidinoacetate N-methyltransferase (Homo sapiens) (UniProt Q14353); details: purified enzyme, MTase-Glo SAH luminescence; measured here: GAMT inhibition; at 40 µM; stronger effect = lower value
Procedure, shortened: as §1

[3] = molecular target: Histamine N-methyltransferase (Homo sapiens) (UniProt P50135); details: purified enzyme, MTase-Glo SAH luminescence; measured here: HNMT inhibition; at 40 µM; stronger effect = lower value
Procedure, shortened: as §1

[4] = molecular target: Nicotinamide N-methyltransferase (Homo sapiens) (UniProt P40261); details: purified enzyme, MTase-Glo SAH luminescence; measured here: NNMT inhibition; at 40 µM; stronger effect = lower value
Procedure, shortened: as §1

[5] = molecular target: Phenylethanolamine N-methyltransferase (Homo sapiens) (UniProt P11086); details: purified enzyme, MTase-Glo SAH luminescence; measured here: PNMT inhibition; at 40 µM; stronger effect = lower value
Procedure, shortened: as §1
On the % scale 0 is the no-effect control and ±100 the full control effect.

| SMILES | activity change, negative = inhibition [1] [%] | activity change, negative = inhibition [2] [%] | activity change, negative = inhibition [3] [%] | activity change, negative = inhibition [4] [%] | activity change, negative = inhibition [5] [%] |
| --- | --- | --- | --- | --- | --- |
| COCC1(CNCc2c(C)noc2C)C[C@@H](O)[C@@H](O)C1 (stereo partly drawn) | -2.93 | -2.73 | -0.172 | -2.56 | -0.608 |
| C=C(C(=O)O)[C@H]1C[C@]2(C)C(=O)CC[C@]23O[C@H]1C[C@@H]3C | -2.81 | -15.7 | 4.56 | -25.3 | 0.383 |
| CCOc1ccccc1CN1C(=O)c2nc3ccccc3n2CC1(C)C(=O)NC1CCCCC1C (stereo not drawn) | 2.07 | 0 | 2.67 | 0.003 | 0.379 |
| COc1ccccc1CNC(=O)C1(C)Cn2c(cc3ccccc32)C(=O)N1Cc1ccccn1 (stereo not drawn) | 1.2 | 3.19 | 2.56 | 4.79 | 1.57 |
| Cn1c(=O)n(C)c2cc(CNc3ccc(N4CCOCC4)c(C(=O)O)c3)ccc21 | -1.95 | 0 | 8.23 | 12 | -0.942 |
| Cc1ccc(CN2CCCC(C(=O)N3CCN(c4ccccn4)CC3)CCNC(=O)CC2)s1 (stereo not drawn) | -4.75 | -3.86 | -1.39 | -11.5 | -0.798 |
| OCC1(CCCc2ccccc2)CCN(Cc2cccc3c2OCO3)CC1 | -3.79 | -5.47 | -40.6 | -16.1 | -22.4 |
| CN1C(=O)c2cc(C(=O)N3CCN(C4CCCCC4)CC3)nn2CC1(C)C(=O)NC1CCCCCC1 (stereo not drawn) | -1 | 0 | 0.89 | -5.55 | -2.84 |
| O=S(=O)(c1ccc2[nH]c3c(c2c1)CCCC3)N1CCN(c2cccc(C(F)(F)F)c2)CC1 | 2.55 | 0 | 0.268 | -4.25 | 0.458 |
| CC1CCC2(C(=O)O)CCC3(C)C(=CCC4C5(C)CCC(O)C(C)(CO)C5CCC43C)C2C1(C)O (stereo not drawn) | -3.2 | 0.07 | 2.73 | -10.7 | -8.91 |
| Cc1ccccc1CN1C(=O)c2cc3sccc3n2CC1(C)C(=O)NC1CCCC(C)C1C (stereo not drawn) | 2.97 | 0 | 5.72 | 3.26 | 1.11 |
| O=C(N[C@H]1CO[C@H]2[C@@H]1OC[C@@H]2n1nnnc1Oc1ccc(-n2ccnc2)cc1)c1ccccc1 | -2.87 | -2.44 | 0.369 | -4.45 | 12.3 |
| COC1CCOC2(CCN(C(=O)CCc3nc4ccccc4s3)CC2)C1 (stereo not drawn) | -4.42 | -5.12 | -2.78 | -10.6 | -10.3 |
| CC(C)NC(=O)c1onc(-c2ccc(Cl)cc2)c1[C@H](C)O | -6.97 | -6.95 | -4.49 | -9.64 | -0.276 |
| O=C(c1ccc(CN2C(=O)NC3(CCOCC3)C2=O)cc1)N1CCc2ccccc2C1 | -7.59 | -8.8 | -5.23 | -20.4 | -5.77 |
| Cc1ccc(Nc2ccnc(N3CCCN([S+](=O)([O-])c4ccc(C)cc4)C3)n2)cc1 | -1.76 | 2.37 | 1.93 | -4.97 | 7.14 |
| O=C(Cc1ccccn1)N1CCN(C(=O)c2cccc(-c3ccccn3)c2)CC1 | -5.26 | -6.53 | -1.91 | -17.7 | 6.49 |
| O=C(CCc1nnc2n(Cc3ccc(F)cc3)c(=O)c3ccccc3n12)Nc1ccc(F)cc1 | -5.89 | 0 | 3.89 | -7.72 | 1.62 |
| COc1ccc(N2C(=O)c3cc4sccc4n3CC2(C)C(=O)NC2CCCCCCC2)cc1OC (stereo not drawn) | -1.89 | 2.25 | 2.5 | 7.25 | -2.14 |
| O=C(NCCN1CCN(c2cccc3ccc(O)cc23)CC1)c1ccc(F)cc1 | -3.74 | -3.72 | 6.54 | -14.3 | -43 |
| COc1ccc(NC(=O)N2CCn3cccc3C2C)c(OC)c1 (stereo not drawn) | 3.23 | 0.805 | 6.07 | -0.809 | 7.27 |

| SMILES | activity change, negative = inhibition [1] [%] | activity change, negative = inhibition [2] [%] | activity change, negative = inhibition [3] [%] | activity change, negative = inhibition [4] [%] | activity change, negative = inhibition [5] [%] |
| --- | --- | --- | --- | --- | --- |
| CC1=C(C(=O)OC(C)C)C(c2ccccc2Cl)CC(=O)N1Cc1c(F)cccc1F (stereo not drawn) | -3.04 | 2.18 | 0.095 | -4.79 | -11.9 |
| CCC(C)NC(=O)c1ccc2c(=O)n(C)c3nn(Cc4cccc(C)c4)c(=O)n3c2c1 (stereo not drawn) | 1.12 | 0 | 7.68 | -6.46 | 5.76 |
| CC(C)(C)NCC(O)c1cc(O)cc(O)c1 (stereo not drawn) | 1.53 | 12.2 | 14.3 | -3.13 | -0.913 |
| O=C(N[C@@H]1CN(Cc2ccccc2)C[C@H]1CO)c1cccnc1 | -1.59 | -0.862 | -0.037 | 5.57 | 1.64 |
| CC[N+](CC)(CC)CCOc1cccc(OCC[N+](CC)(CC)CC)c1OCC[N+](CC)(CC)CC | -22.2 | 1.64 | -13.6 | -6.15 | 7.22 |
| CC1CCC(NC(=O)C2(C)Cn3c(ccc3-c3ccccc3)C(=O)N2CCc2ccccc2)CC1 (stereo not drawn) | 5.43 | 1.28 | 3.24 | 7.97 | 4.01 |
| COc1ccc(-c2cc3n(n2)CC(C)(C(=O)NCc2ccccc2OC)N(Cc2ccc(C)cc2)C3=O)cc1 (stereo not drawn) | 5.8 | 0 | 7.72 | 1.6 | 0.473 |
| COc1cccc(NC(=O)CCc2nnc3n(Cc4ccc(Cl)cc4)c(=O)c4ccccc4n23)c1 | 0.145 | 0 | -5.97 | 7.55 | -3.22 |
| COCCOCc1nc(C2CCCCN2C(=O)NCc2ccc(F)cc2)no1 (stereo not drawn) | -5.13 | -8.06 | -2.8 | -7.75 | -0.094 |
| COc1ccc(CN2C(=O)c3cc(-c4ccc(OC)cc4)nn3CC2(C)C(=O)NCc2ccccc2)cc1 (stereo not drawn) | 6.92 | 0 | 8.33 | 5.51 | 0.662 |
| CC1(C(=O)NC2CCCCC2)Cn2nc(-c3ccco3)cc2C(=O)N1Cc1ccccc1Cl (stereo not drawn) | 0.475 | 0 | 5.67 | -7.97 | -0.318 |
| C=C(c1ccc(C(=O)O)cc1)c1cc2c(cc1C)C(C)(C)CCC2(C)C | -2.43 | -12.3 | -7.47 | -45.8 | -12 |
| COc1ccc(C2=NOC3(CCN(Cc4cccn4C)C3)C2)cc1 (stereo not drawn) | -5.43 | -6.43 | -14 | -8.38 | -33.7 |
| NC(=O)[C@@H]1CC[C@H](c2ccc(OCc3ccccc3F)cc2)N1 | 1.67 | 6.42 | 3.82 | -9.22 | -0.31 |
| O=C(NCc1ccc(F)cc1)N1CCC(OC2CCN(Cc3ccccc3)CC2)CC1 | -2.86 | 0.717 | -21.9 | -6.58 | -8.31 |
| CCCN(CCC)CCN1C(=O)c2cc3sccc3n2CC1(C)C(=O)NC1CCCCCC1 (stereo not drawn) | 6.47 | -4.87 | -6.33 | -0.12 | 4.5 |
| CN1C(=O)c2cc(C(=O)N3CCCCC3)nn2CC1(C)C(=O)NC1CCCCCC1 (stereo not drawn) | 4.36 | 0 | 9.77 | 10.8 | 4.64 |
| CCN1C(=O)c2cc(C(=O)NCc3ccccc3Cl)nn2CC1(C)C(=O)NC1CCCC1 (stereo not drawn) | 2.59 | 3.64 | 3.87 | -0.947 | -1.82 |
| Cc1ccccc1NC(=O)Cn1nc2n(C(C)C)c(=O)c3ccc(C(=O)NC4CCCC4)cc3n2c1=O | -0.081 | 5.89 | -1.14 | -2.38 | -8.56 |
| COc1ccc(-c2cc3n(n2)CC(C)(C(=O)NCc2ccccc2OC)N(c2ccc(Cl)cc2C)C3=O)cc1 (stereo not drawn) | 6.74 | 0 | 8.47 | -1.57 | 1.9 |
| Cc1ccc2n1CCN(C(=O)Nc1cccc(C(F)(F)F)c1)C2C(C)C (stereo not drawn) | 11 | 0 | -3.83 | -6.75 | 0.149 |

| SMILES | activity change, negative = inhibition [1] [%] | activity change, negative = inhibition [2] [%] | activity change, negative = inhibition [3] [%] | activity change, negative = inhibition [4] [%] | activity change, negative = inhibition [5] [%] |
| --- | --- | --- | --- | --- | --- |
| CCN1CCN(CCCNC(=O)c2cc3n(n2)CC(C)(C(=O)NC2CCCCC2)N(C)C3=O)CC1 (stereo not drawn) | -1.79 | 3.14 | -3.63 | -2.25 | 0.245 |
| CN(C)CCCCC(=O)Nc1ccc(NC(=S)NC(=O)c2ccc(C(C)(C)C)cc2)cc1 | -2.39 | 10 | -23.6 | -25.2 | 3.84 |
| COc1cccc(CN2C(=O)c3cc4ccccc4n3CC2(C)C(=O)NCCC(C)C)c1OC (stereo not drawn) | 2.31 | 0 | 4.84 | -1.84 | -0.8 |
| Cc1ccc(N2C(=O)c3cc(-c4cccs4)nn3CC2(C)C(=O)NC2CCCCCC2)cc1 (stereo not drawn) | -2.95 | 0.395 | 1.13 | 2.11 | -2.96 |
| Cc1ocnc1C(=O)N1CCC2(CCCN(CCCc3ccccc3)C2=O)C1 (stereo not drawn) | 1.73 | 3.31 | 0.854 | -1.81 | -0.291 |
| COC(=O)C(N)Cc1ccc(Cl)cc1 (stereo not drawn) | -10.1 | -2.03 | -2.35 | -12.1 | -1.83 |
| Cc1cc2c(cc1NS(=O)(=O)c1ccc3c(c1)n(C)c(=O)n3C)n(C)c(=O)n2C | -13.6 | 3.9 | -4 | -11.6 | -2.01 |
| CCn1c(=O)n(CC)c2cc(S(=O)(=O)N3CCN(c4ccc(C)cc4C)CC3)ccc21 | 3.63 | 0 | 1.22 | -3.23 | 4.02 |
| CCOCCCNC(=O)N1Cc2c(sc3c2CCCC3)-n2cccc2C1c1ccc(C)cc1 (stereo not drawn) | -4.91 | 0 | 10.3 | -0.146 | -0.573 |
| COC[C@H]1C[C@@H](NS(C)(=O)=O)[C@H](O)[C@@H]1O | -5.03 | -5.7 | -10.7 | -7.53 | 0.799 |
| CC(=O)N1CCC(N2CC[C@H](c3nc4ccccc4s3)C2)CC1 | -6.16 | -7.66 | -2.49 | -9.44 | -5.83 |
| COC(=O)C1=CO[C@@H](O[C@@H]2O[C@H](CO)[C@@H](O)[C@H](O)[C@H]2O)C2C1C(=O)C[C@H]2C (stereo partly drawn) | 2.68 | 1.02 | 8.43 | -11.9 | 7.09 |
| CCC(C)NC(=O)c1ccc2c(=O)n(CC(C)C)c3nn(Cc4ccccc4)c(=O)n3c2c1 (stereo not drawn) | -6.87 | 3.16 | 3.45 | -5.53 | 2.58 |
| c1ccc(-c2n[nH]c3c2oc2ccccc23)cc1 | – | 4.78 | – | -14.4 | 7.31 |
| CCOc1ccc(N2C(=O)c3cc(-c4ccco4)nn3CC2(C)C(=O)NC2CCCCCC2)cc1 (stereo not drawn) | -1.28 | 0 | 2.6 | 3.72 | -3.97 |
| OCC1(CC2CC2)CCCN(Cc2ccc(C(F)(F)F)nc2)C1 (stereo not drawn) | -1.61 | 0.293 | 0.611 | -6.98 | -1.18 |
| Cn1cc(-c2ccc(S(=O)(=O)n3ccc(/C=C/C(=O)Nc4ccccc4N)c3)cc2)cn1 | -6.17 | -18.9 | -3.22 | -44.2 | -18.9 |
| O=C(COc1ccccc1)N1CCC(OCc2ccccc2)C1 (stereo not drawn) | -5.75 | -8.63 | -6.13 | -5.89 | -7.28 |
| CC(C)Cn1c(=O)c2ccccc2n2c(CCC(=O)NCCCN3CCN(c4ccccc4F)CC3)nnc12 | -1.9 | 0.633 | 1.86 | 1.17 | 1.15 |

Source: PubChem BioAssay AID1745853 (National Center for Advancing Translational Sciences (NCATS), 2022)
